Measured values: PubChem BioAssay AID651820 (National Center for Advancing Translational Sciences (NCATS), 2012)
Screen size: about 340,000 compounds; about 12,000 (3.5%) were called active. This list was built around the results that the source calls inconclusive (neither active nor inactive); the mix of calls is not that of the screen. Calls follow the shape of the dose curve; as a rule, active = well fitted inhibition curve with a large enough effect; inconclusive = small, poorly fitted or top-dose-only effect, or another doubt; inactive = no such curve, though single readings can be large or run the other way. Potencies of inconclusive entries are left out as doubtful fits.

Experiment: qHTS Assay for Inhibitors of Hepatitis C Virus (HCV)
Conditions: Huh7.5.1 HCVcc-Cre (HCVcc is cell-culture hepatitis C virus) infection, luciferase reporter, 44 h; activity change, negative = inhibition: at 41.8 µM (top of the series) unless noted
Outline: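 A cell-based infection assay in which seeded cells (1,000 per well) receive test compound after 4 h, are inoculated with HCVcc-Cre at approximately 0.5 moi, and are incubated 44 h before luminescence detection.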
% is scaled to controls: 0 for no effect and ±100 for the full control effect; potency is read from the fitted curve at half-maximal effect; tags tell the direction and shape of the fitted curve.

| SMILES | Potency | activity change, negative = inhibition |
| --- | --- | --- |
| O=C(Nc1ccccn1)c1ccc(S(=O)(=O)c2ccc(Cl)cc2)cc1 | inconclusive [inhibitor, single point] | – |
| COc1cc(-c2c(-c3cccc(C)c3)oc3ccccc23)cc(OC)c1OC | inconclusive [inhibitor, partial curve] | – |
| Cc1ccccc1NCC(=O)N/N=C\c1ccc([N+](=O)[O-])s1 | inconclusive [inhibitor, single point] | – |
| CC(C)(C)c1cc(CN2CCCC(O)C2)c(O)c(C(C)(C)C)c1 (stereo not drawn) | inconclusive [inhibitor, partial curve, poor fit] | – |
| Cc1cc(NC(=O)c2ccc(Cl)cc2)ccc1NC(=O)c1ccccc1Cl | inconclusive [inhibitor, single point] | – |
| Oc1ccccc1CNc1ccc(Br)cn1 | inconclusive [inhibitor, single point] | – |
| CC(C)N(Cc1nc(-c2ccccc2)no1)C(=O)CN(C)S(=O)(=O)c1ccc(Br)cc1 | inconclusive [inhibitor, single point] | – |
| Cc1ccc2cc3cc(C(=O)NCCCN4CC(C)CC(C)C4)oc3nc2c1 (stereo not drawn) | inconclusive [inhibitor, full curve, poor fit] | – |
| COC(=O)C(CC(=O)c1ccc(Br)cc1)n1cccn1 (stereo not drawn) | inactive | – |
| COC(=O)CNC(=O)CN(c1ccc(OC)cc1OC)S(=O)(=O)c1ccccc1 | inconclusive [inhibitor, single point] | – |
| O=C(c1cc(-c2cccc(O)c2)on1)N1CCCCC1 | inactive | – |
| Cc1cc(NC(=O)c2ccccc2F)ncc1NC(=O)c1cccs1 | inactive | – |
| CCOC(=O)Nc1ccc2c(c1)N(C(=O)CN(CC)CC)c1ccccc1CC2 | inactive | – |
| CCOC(=O)c1oc2ccc(Br)cc2c1COC(=O)C1=COCCO1 | active: 25.1 µM | – |
| COc1ccc2cc(-c3cc(C(=O)OCC(=O)NC4CCS(=O)(=O)C4)c4ccccc4n3)ccc2c1 (stereo not drawn) | inconclusive [inhibitor, single point] | – |
| CCOC(=O)Cn1c(CCC(=O)O)ccc1-c1ccc(F)cc1 | inactive | – |
| COc1cccc(NC(=O)C2CC2(c2cccc(OC)c2)c2cccc(OC)c2)c1 (stereo not drawn) | inconclusive [inhibitor, single point] | – |
| O=C(NCc1nnnn1-c1ccc(F)cc1)c1ccc([N+](=O)[O-])o1 | inconclusive [inhibitor, partial curve] | – |
| CCOc1ccc(NC(=O)CN(C)C(=O)Cc2c[nH]c3ccccc23)cc1OCC | inconclusive [inhibitor, partial curve] | – |
| COc1ccccc1N(C)S(=O)(=O)c1ccc(Cl)c(C(=O)Nc2cccc(C)n2)c1 | inconclusive [inhibitor, single point] | – |
| O=C(N/N=C/c1cc(Br)ccc1O)Nc1ccccc1 | inactive | – |
| c1ccc(Cn2ccc(-c3cnc(-c4ccccc4)s3)n2)cc1 | inconclusive [inhibitor, partial curve, poor fit] | – |
| CC(=O)c1c(N2CCOCC2)nc2ccc(Br)cc2c1-c1ccccc1 | – | inconclusive: -47.9% [inhibitor] |

| SMILES | Potency | activity change, negative = inhibition |
| --- | --- | --- |
| CSCc1ccc(C(=O)NC(C)c2cnn(-c3ccccn3)c2C)o1 (stereo not drawn) | inconclusive [inhibitor, partial curve, poor fit] | – |
| CCCC(=O)C1=C(O)C(C(=O)OC)C(C)(C)CC1=Nc1ccccc1 (stereo not drawn) | inactive | – |
| COC(=O)c1c(-c2cccs2)csc1NC(=O)CSc1ncnc2sc(C)c(C)c12 | inconclusive [inhibitor, partial curve, poor fit] | – |
| COc1ccc(OCC(=O)N2CCN(Cc3ccc(SC)cc3)CC2)cc1 | inconclusive [inhibitor, single point] | – |
| CCOC(=O)c1c(-n2c(C)cc(/C=C3\C(=O)NC(=O)N(C)C3=O)c2C)sc2c1CCCC2 | active: 14.1 µM | – |
| COC(=O)Cn1c(=O)c(C(=O)CCl)c(N)n(Cc2ccccc2)c1=O | inconclusive [inhibitor, full curve] | – |
| CCOC(=O)c1ccccc1NC(=O)c1ccc(Cl)c(S(=O)(=O)N2CCOCC2)c1 | inconclusive [inhibitor, single point] | – |
| CC1(CCc2ccccc2)NC(=O)N(CC(=O)Nc2ccccc2)C1=O (stereo not drawn) | inactive | – |
| Cn1nc(C(=O)NCCc2ccc(Cl)cc2)c2c1-c1ccccc1S(=O)(=O)C2 | inconclusive [inhibitor, partial curve] | – |
| CC1CCN(S(=O)(=O)c2ccc3c(c2)N(CC(=O)N(C)Cc2ccco2)C(=O)CO3)CC1 | inconclusive [inhibitor, single point] | – |
| COc1ccc(Nc2ccnc3ccccc23)cc1 | inconclusive [inhibitor, partial curve] | – |
| CCOC(=O)C1=C(C)Nc2ccccc2N=C1NC(=O)c1cccc(S(=O)(=O)N(C)C)c1 | inactive | – |
| COc1ccc(-c2coc3cc(OC)cc(OC)c3c2=O)cc1 | inconclusive [inhibitor, partial curve] | – |
| CCCCCc1ccc(C(=O)CCC(=O)OCC(=O)N(CC)c2c(N)n(Cc3ccccc3)c(=O)[nH]c2=O)cc1 | inactive | – |
| CC1CCN(c2ccc(NC(=O)c3ccc([N+](=O)[O-])o3)cc2)CC1 | inconclusive [inhibitor, partial curve] | – |
| C[C@@H]1C=C[C@](Cc2ccccc2)(C(=O)NCCc2c[nH]c3ccccc23)N1C(=O)c1ccccc1 | – | inactive: -9.71% [at 8.37 µM] |
| CCC(=O)c1ccc(O)c(OC)c1 | inactive | – |
| COc1ccccc1NS(=O)(=O)c1ccc2oc(SC3CCOC3=O)nc2c1 (stereo not drawn) | inconclusive [inhibitor, partial curve, poor fit] | – |
| O=C(Nc1ccc(F)cc1F)N1CCCC(c2nc(-c3ccc(F)cc3)no2)C1 (stereo not drawn) | inconclusive [inhibitor, single point] | – |
| C=C(C)Cn1c(N2CCCC2)nc2c1c(=O)n(C)c(=O)n2C | inactive | – |
| O=C(N1CCOCC1)N(Cc1cccs1)C1CCCC1 | inactive | – |
| CCn1c(=O)c2cc(C(=O)N3CCN(C)CC3)sc2c2ccccc21 | inconclusive [inhibitor, single point] | – |
| O=c1c2ccccc2sn1-c1ccc(F)cc1 | inconclusive [inhibitor, partial curve] | – |

| SMILES | Potency | activity change, negative = inhibition |
| --- | --- | --- |
| Cc1ccc(NC(=O)c2ccc(NCCc3ccccc3)c([N+](=O)[O-])c2)cc1F | inconclusive [inhibitor, partial curve] | – |
| COc1ccc(/C=C2\SC(=O)N(CCC(=O)N(C)C3CCS(=O)(=O)C3)C2=O)cc1 (stereo not drawn) | inconclusive [inhibitor, single point] | – |
| COC(=O)C(C)Sc1nc2c(c(=O)[nH]c(=O)n2C)n1CCCc1ccccc1 (stereo not drawn) | inconclusive [inhibitor, partial curve] | – |
| c1ccc(-c2ccccc2OCCCCN2CCCCCC2)cc1 | inconclusive [inhibitor, single point] | – |
| Cc1ccc(NC(=O)CCc2nnc3ccc(N4CCC5(CC4)OCCO5)nn23)nc1 | inactive | – |
| COc1cccc2sc(N(CCN(C)C)C(=O)/C=C/c3cccs3)nc12 | inconclusive [inhibitor, partial curve] | – |
| COc1ccc(-c2nn(-c3ccccc3)cc2C(=O)N2CCN(S(=O)(=O)c3cccc(F)c3)CC2)cc1 | inconclusive [inhibitor, single point] | – |
| COc1ccc(N2C(=O)c3ccc(C(=O)Nc4ccccc4O)cc3C2=O)cc1 | inactive | – |
| Cc1cc(N)n(-c2ccc([N+](=O)[O-])cc2)n1 | inconclusive [inhibitor, single point] | – |
| CC1CCN(c2nc3ccc(C(=O)N4CCN(Cc5ccc6c(c5)OCO6)CC4)cc3s2)CC1 | active: 3.16 µM | – |
| CCCn1c(=S)[nH]c2cc(C(=O)N3CCc4ccccc43)ccc2c1=O | inconclusive [inhibitor, partial curve] | – |
| Nc1nc(N)c(C=Nc2ccc(Br)cc2)c(Nc2ccc(Br)cc2)n1 | inconclusive [inhibitor, single point] | – |
| COc1ccc(-c2noc(-c3ccccc3-c3ccccc3)n2)cc1 | inconclusive [inhibitor, full curve, poor fit] | – |
| CN(C)C(=O)Oc1ccc(Br)c2ccccc12 | inactive | – |
| CCOc1cccc(=O)c2c(C)n(Cc3ccco3)c(C)c12 | inconclusive [inhibitor, full curve, poor fit] | – |
| CCN(CC)CCN(C(=O)c1ccc2c(c1)OCCO2)c1nc2cc(C)cc(C)c2s1 | inconclusive [inhibitor, full curve, poor fit] | – |
| CCc1cccc(CC)c1N(COC)C(=O)CCl | inactive | – |
| Cc1ccc(NC(=O)CSCC(=O)Nc2ccccc2N2CCCCC2)cc1 | inconclusive [inhibitor, partial curve, poor fit] | – |
| Cn1c(=O)c2c(ncn2CC(=O)Nc2ccc(Cl)cc2Cl)n(C)c1=O | inconclusive [inhibitor, single point] | – |
| CCOc1ccc(CNC(=O)Cn2nc(C)n3nc(-c4ccccc4)cc3c2=O)cc1 | inconclusive [inhibitor, single point] | – |
| COc1cc2cc(-c3ccc(OC)c(OC)c3C)nc(N)c2cc1OC | active: 17.8 µM | – |
| COc1cc(C(=O)N/N=C(\Cc2ncc[nH]2)c2ccccc2)cc(OC)c1OC | inconclusive [inhibitor, single point] | – |
